{
  "source": "the supplement of paper PMC11383711",
  "test_in_all_cases": "mRNA display binding score; higher = more enriched on the antigen",
  "key": {"[1]": {"biological_target": "Influenza A H1N1 A/Michigan/45/2015 hemagglutinin ectodomain", "protocol": "(§1)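 A pool of natively paired antibodies, displayed as scFv on mRNA, was selected once on antigen-coated beads and sequenced before and after; two replicates.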"}, "[2]": {"biological_target": "Influenza A H1N1 A/Solomon Islands/3/2006 hemagglutinin ectodomain", "protocol": "as §1"}, "[3]": {"biological_target": "Influenza A H3N2 A/Singapore/INFIMH-16-0019/2016 hemagglutinin ectodomain", "conditions": "antigen blocked with: nothing", "protocol": "as §1"}, "[4]": {"biological_target": "Influenza A H5N1 A/Qinghai/1A/2005 hemagglutinin ectodomain", "protocol": "as §1"}, "[5]": {"biological_target": "Influenza A H7N9 A/Shanghai/2/2013 hemagglutinin ectodomain", "protocol": "as §1"}, "[6]": {"biological_target": "Influenza B/Lee/1940 hemagglutinin ectodomain", "protocol": "as §1"}, "[7]": {"biological_target": "Influenza B/Phuket/3073/2013 hemagglutinin ectodomain", "protocol": "as §1"}, "[8]": {"conditions": "antigen blocked with: 2 µM CR9114 IgG"}},
  "note": "This is one part of the list. Binding of human antibodies (heavy:light variable regions, tested as scFv in one mRNA-display pool) to influenza hemagglutinin, with or without the stem antibody CR9114 bound first. Score = (mean enrichment − median) / interquartile range of that screen; higher = more enriched, 0 = typical non-binder. Active = above the paper's cut-off per screen: stems 28; unblocked H1 Solomon Islands 5, H1 Michigan 3, H3 5, H5 19, H7 2.85, both B 5; blocked 9, 7, H5 10, H7 10, B Phuket 10, B Lee 11.5. Scores are scaled within each screen and are no affinities; replicates correlate at about 0.6 to 0.9, and antibodies rare in the pool are noisier.",
  "data": [
    {"binder": "01.h.02 (protein) chain 1: EVQLLESGGGLVKRGGSLRLSCAASGFTFSAYGMSWVRQVPGGGLEWVSGVGGSGFGTDYADSVKGRFTISRDNSKNILYLQMNTLRAEDTAVYYCAKGVNWQPPYWYDYWGQGTLVTVSS chain 2: DIVMTQDPVTLPVSLGERATIKCKSSQSVLSSSNNKNQLAWYQQRPGQPPKLLIYWASTRQSGVPERFSGSGSGTDFTLTVDVLLPEDVAVYYCQQYVSTPYTFGQGTKLEIK", "values": [
      {"measurement": "mRNA display binding score", "setting": "[1]; [8]", "value": "inactive: -0.145"},
      {"measurement": "mRNA display binding score", "setting": "[1]; antigen blocked with: nothing", "value": "inactive: 0.288"},
      {"measurement": "mRNA display binding score", "setting": "[2]; [8]", "value": "inactive: -0.183"},
      {"measurement": "mRNA display binding score", "setting": "[2]; antigen blocked with: nothing", "value": "inactive: 0.253"},
      {"measurement": "mRNA display binding score", "setting": "[3]", "value": "active: 18.3"},
      {"measurement": "mRNA display binding score", "setting": "[4]; [8]", "value": "inactive: 0.0856"},
      {"measurement": "mRNA display binding score", "setting": "[4]; antigen blocked with: nothing", "value": "inactive: 0.116"},
      {"measurement": "mRNA display binding score", "setting": "[5]; [8]", "value": "inactive: -0.698"},
      {"measurement": "mRNA display binding score", "setting": "[5]; antigen blocked with: nothing", "value": "inactive: 0.38"},
      {"measurement": "mRNA display binding score", "setting": "[6]; [8]", "value": "inactive: -0.351"},
      {"measurement": "mRNA display binding score", "setting": "[6]; antigen blocked with: nothing", "value": "inactive: -0.0489"},
      {"measurement": "mRNA display binding score", "setting": "[7]; [8]", "value": "inactive: -0.00129"},
      {"measurement": "mRNA display binding score", "setting": "[7]; antigen blocked with: nothing", "value": "inactive: 0.0904"}
    ]},
    {"binder": "K77-2D02 (protein) chain 1: EVQLVESGGGVVQPGGALRLSCAASGFTFSSYGMHWVRQAPGKGLEWVAYISYDGSEKTYADPLKGRFTIARDRSTNTLYLQMNRLRPEDTAVYHCARVKDSYYLEYWGQGTLVTVSS chain 2: QSALTQPASVSGSPGQSITISCTGTSSDVGIYDLVSWYQQHPGKAPKLMIYEVNERPSGVSNRFSGSKSGNTASLTISGLQTEDEADYYCCSYAGSDTWVFGGGTKLT", "values": [
      {"measurement": "mRNA display binding score", "setting": "[1]; [8]", "value": "inactive: -0.517"},
      {"measurement": "mRNA display binding score", "setting": "[1]; antigen blocked with: nothing", "value": "inactive: -0.629"},
      {"measurement": "mRNA display binding score", "setting": "[2]; [8]", "value": "inactive: -0.327"},
      {"measurement": "mRNA display binding score", "setting": "[2]; antigen blocked with: nothing", "value": "inactive: -0.45"},
      {"measurement": "mRNA display binding score", "setting": "[3]", "value": "inactive: -0.561"},
      {"measurement": "mRNA display binding score", "setting": "[4]; [8]", "value": "inactive: -0.555"},
      {"measurement": "mRNA display binding score", "setting": "[4]; antigen blocked with: nothing", "value": "inactive: -0.0684"},
      {"measurement": "mRNA display binding score", "setting": "[5]; [8]", "value": "inactive: -0.692"},
      {"measurement": "mRNA display binding score", "setting": "[5]; antigen blocked with: nothing", "value": "inactive: -0.593"},
      {"measurement": "mRNA display binding score", "setting": "[6]; [8]", "value": "inactive: -0.261"},
      {"measurement": "mRNA display binding score", "setting": "[6]; antigen blocked with: nothing", "value": "inactive: 1.18"},
      {"measurement": "mRNA display binding score", "setting": "[7]; [8]", "value": "inactive: 5.31"},
      {"measurement": "mRNA display binding score", "setting": "[7]; antigen blocked with: nothing", "value": "active: 13.8"}
    ]},
    {"binder": "W85-2A08 (protein) chain 1: EVQLVESGGGLVKPGESLTLSCAASQFAFRDYAMNWVRQAPGRGLEWVSCINGNSRYTYYADSVRGRFAISRDNAGETLYLQLNSLRAEDTALYYCARGSFGPGSYYTFEHYHMDVWGKGTTVTVSS chain 2: QSALTQPASVSGSPGEAITISCTGSTSDIENYNSVSWYQQHPGQAPKLIIYDVTNRPSGVPLRFSGSKSGNTASLTISGLQAEDEADYSCSSYSSTTSLYVFGSGTKVT", "values": [
      {"measurement": "mRNA display binding score", "setting": "[1]; [8]", "value": "inactive: 0.258"},
      {"measurement": "mRNA display binding score", "setting": "[1]; antigen blocked with: nothing", "value": "inactive: -0.00641"},
      {"measurement": "mRNA display binding score", "setting": "[2]; [8]", "value": "inactive: 0.644"},
      {"measurement": "mRNA display binding score", "setting": "[2]; antigen blocked with: nothing", "value": "inactive: 0.292"},
      {"measurement": "mRNA display binding score", "setting": "[3]", "value": "inactive: 0.108"},
      {"measurement": "mRNA display binding score", "setting": "[4]; [8]", "value": "inactive: 0.488"},
      {"measurement": "mRNA display binding score", "setting": "[4]; antigen blocked with: nothing", "value": "inactive: 1.41"},
      {"measurement": "mRNA display binding score", "setting": "[5]; [8]", "value": "inactive: -0.00195"},
      {"measurement": "mRNA display binding score", "setting": "[5]; antigen blocked with: nothing", "value": "inactive: 0.293"},
      {"measurement": "mRNA display binding score", "setting": "[6]; [8]", "value": "active: 21.9"},
      {"measurement": "mRNA display binding score", "setting": "[6]; antigen blocked with: nothing", "value": "active: 78.5"},
      {"measurement": "mRNA display binding score", "setting": "[7]; [8]", "value": "active: 40"},
      {"measurement": "mRNA display binding score", "setting": "[7]; antigen blocked with: nothing", "value": "active: 24.2"}
    ]},
    {"binder": "K77-1F06 (protein) chain 1: QVLLVQSGPEVKKPGASVKVSCKASGYTFTASYMHWVRQAPGQGLEWMGVINPRHGNIAYAKKFLGRVTMTRDTSTSTVYMELTSLRSEDTAVYYCARDLREMDVPGPYGMDVWGQGTTVIVSS chain 2: EIVLTQSPVTLSLSPGERATLSCRASQTISSSYLAWYQQKPGQAPRLLIYGTSSRATGIPDRFSGFGSGPDFTLTISRLESEDFAVYYCQQYGGSPPATFGQGTRVDIK", "values": [
      {"measurement": "mRNA display binding score", "setting": "[1]; [8]", "value": "inactive: 0.946"},
      {"measurement": "mRNA display binding score", "setting": "[1]; antigen blocked with: nothing", "value": "inactive: 0.295"},
      {"measurement": "mRNA display binding score", "setting": "[2]; [8]", "value": "inactive: 0.128"},
      {"measurement": "mRNA display binding score", "setting": "[2]; antigen blocked with: nothing", "value": "inactive: -0.126"},
      {"measurement": "mRNA display binding score", "setting": "[3]", "value": "inactive: 0.411"},
      {"measurement": "mRNA display binding score", "setting": "[4]; [8]", "value": "inactive: 0.257"},
      {"measurement": "mRNA display binding score", "setting": "[4]; antigen blocked with: nothing", "value": "inactive: 0.0455"},
      {"measurement": "mRNA display binding score", "setting": "[5]; [8]", "value": "inactive: 0.792"},
      {"measurement": "mRNA display binding score", "setting": "[5]; antigen blocked with: nothing", "value": "inactive: 0.0622"},
      {"measurement": "mRNA display binding score", "setting": "[6]; [8]", "value": "active: 16.3"},
      {"measurement": "mRNA display binding score", "setting": "[6]; antigen blocked with: nothing", "value": "active: 20.7"},
      {"measurement": "mRNA display binding score", "setting": "[7]; [8]", "value": "inactive: -0.0431"},
      {"measurement": "mRNA display binding score", "setting": "[7]; antigen blocked with: nothing", "value": "inactive: -0.419"}
    ]}
  ]
}
